From PubChem BioAssay AID624296 (National Center for Advancing Translational Sciences (NCATS), 2012)
About 9,900 (2.8%) of roughly 350,000 compounds were called active. Inconclusive results, whose numbers are uncertain, are shown with a selection of clear calls. Calls come from the whole dose curve; as a rule, active = well fitted activation curve with a large enough effect; inconclusive = small, poorly fitted or top-dose-only effect; inactive = no such curve, though single readings can be large or run the other way. Potencies of inconclusive entries are left out as doubtful fits.

test: A quantitative high throughput screen for small molecules that induce DNA re-replication in MCF 10a normal breast cells.; note: nearly all actives have a fitted effect of over 50% in size; for activity, positive = re-replication: % of control where 0% means no effect; details: MCF 10A DNA re-replication, Hoechst nuclear intensity, 48 h; activity, positive = re-replication: at 46.1 µM (top of the series)
Potency is the fitted concentration of half-maximal effect; tags give direction and shape of the fitted curve.

Structure (SMILES) | Potency | activity, positive = re-replication
COc1cc(-c2noc(C)c2C(=O)N[C@@H](CO)Cc2ccccc2)cc(OC)c1OC | inconclusive [activator, single point] | –
Cc1ccccc1NC(=O)C1CCCN1S(=O)(=O)c1cccc2cccnc12 (stereo not drawn) | inconclusive [activator, single point] | –
O=C(Cn1nnc2c(sc3nc4c(c(-c5ccccc5)c32)CCC4)c1=O)c1ccccc1 | inconclusive [activator, partial curve, poor fit] | –
COc1cccc(SCc2noc(C(=O)NCc3ccccc3)c2C(=O)NCc2ccccc2)c1 | inconclusive [activator, single point] | –
Cc1ccc(C)c(-n2c3nc(=O)[nH]c(=O)c-3cc3cc([N+](=O)[O-])ccc32)c1 | inconclusive [activator, partial curve, poor fit] | –
CC(=O)N1CCN(c2nc(-c3ccco3)c3c(c2C#N)CC(C)(C)SC3)CC1 | inconclusive [activator, single point] | –
COC(=O)[C@@H]1C[C@H]2CC[C@H](O)C[C@H]2N1Cc1ccccc1OS(=O)(=O)c1ccc(C)cc1 | inconclusive [activator, single point] | –
CCc1ccc(NC(=O)C(=O)NCCN2CCN(C(=O)c3ccco3)CC2)cc1 | inconclusive [activator, partial curve, poor fit] | –
COc1cccc(CNC(=O)c2nnn(CC(=O)Nc3ccc(Br)cc3)c2N)c1 | inactive | –
O=C(N/N=C/c1ccc(Cl)cc1)C(=O)N1CCCCCC1 | inconclusive [activator, single point] | –
CC(C)(C)C1CCC2(CC1)C(Nc1cccc(C(F)(F)F)c1)=NC(=S)N2CC#N (stereo not drawn) | inconclusive [activator, partial curve, poor fit] | –
CC1CCN(c2ccc3c(c2)S(=O)(=O)c2cccc(C(=O)O)c2C3=O)CC1 | inconclusive [activator, full curve, poor fit] | –
Cc1ccc(C(=O)NC(=S)NCc2cccnc2)cc1 | inconclusive [activator, single point] | –
O=C(CSc1n[nH]c(-c2ccccc2O)n1)N1CCCc2ccccc21 | inconclusive [activator, partial curve, poor fit] | –
CC1CN(c2nnc(-c3ccccc3)c3ccccc23)CC(C)O1 (stereo not drawn) | inconclusive [activator, single point] | –
O=C1NC(=S)NC(=O)C1Nc1ccc(Cl)cc1 | inconclusive [activator, partial curve, poor fit] | –
O=C(CN1CCN(S(=O)(=O)c2ccc(Cl)c(C(F)(F)F)c2)CC1)NC(=O)NC1CCCCC1 | inactive | –
Cc1nc(CCNC(=O)c2cc(COc3ccc(F)cc3Cl)on2)sc1C | inactive | –
CCOC(=O)c1c(C)n(C)c2cc(Br)c(C(=O)OC)cc12 | inactive | –
Cc1ccc(-c2onc(C)c2C)cc1S(=O)(=O)N1CCOc2ccccc21 | inconclusive [activator, partial curve, poor fit] | –
COc1ccc(COc2cc(-c3cccc(OC)c3)nc3ccc(NC(=O)c4ccc(OC)cc4)cc23)cc1 | active: 2.31 µM | –
NC(=O)c1ccccc1OCC(=O)Nc1cccnc1Cl | inactive | –
Cc1ncc(CN2CCCC(C(=O)Nc3ccc(-c4ccco4)cc3)C2)n1C (stereo not drawn) | inconclusive [activator, full curve, poor fit] | –

Structure (SMILES) | Potency | activity, positive = re-replication
COc1ccccc1N(CC(O)COc1ccc(C)cc1)S(=O)(=O)c1ccccc1 (stereo not drawn) | inconclusive [activator, single point] | –
CCOc1ccc(Br)cc1S(=O)(=O)NC1CC(C)(C)NC(C)(C)C1 | inactive | –
CCN(c1ccc(OC)cc1)S(=O)(=O)N1CCCC(C(=O)NCc2ccccc2Br)C1 (stereo not drawn) | inconclusive [activator, partial curve, poor fit] | –
COc1ccccc1N1CCN(C(=O)c2ccc(Br)o2)CC1 | inactive | –
CC(NC=O)c1nc2ccccc2n1CCc1ccccc1 (stereo not drawn) | inactive | –
COc1ccc(-n2c(SCC(=O)Nc3ccccc3)nc(O)cc2=O)cc1 | inactive | –
Cc1cc(C)nc(SCc2nnc(SCC(N)=O)o2)n1 | inactive | –
O=C(Nc1nnc(SCc2ccc(Cl)cc2Cl)s1)C1COc2ccccc2O1 (stereo not drawn) | active: 18.4 µM | –
O=C(N/N=C/c1ccncc1)c1ccc(NC(=O)c2ccc(Cl)cc2)cc1 | inconclusive [activator, single point] | –
CC(C)C(c1nnnn1C1CCCC1)N1CCN(C(=O)c2ccco2)CC1 (stereo not drawn) | inconclusive [activator, single point] | –
Cc1cc(C)cc(OCC(=O)NNC(=S)NC(=O)C2CC2)c1 | inactive | –
CCC(=O)Nc1cc2c(cc1C(C)=O)OCCO2 | inactive | –
O=[N+]([O-])c1ccc(S(=O)(=O)NCCS(=O)(=O)N2CCN(c3ccccc3)CC2)cc1 | inactive | –
Cc1ccc(SCC(=O)OCC(=O)NCCc2ccc(S(N)(=O)=O)cc2)c(C)c1 | inactive | –
COc1ccc(-c2csc(NC3OC(=O)c4c3ccc(OC)c4OC)n2)cc1OC (stereo not drawn) | inconclusive [activator, single point] | –
O=C1C2C3C=CC(C3=C(c3ccccc3)c3ccccc3)C2C(=O)N1Cc1ccccc1 (stereo not drawn) | inconclusive [activator, partial curve, poor fit] | –
Cn1c(C(=O)NCCc2ccsc2)cc2c(=O)n(C)c3ccccc3c21 | inactive | –
Cc1nc(NC(=O)c2cccs2)ccc1Br | inconclusive [activator, partial curve, poor fit] | –
COc1ccc(CN2CCCC(C(=O)c3ccc(Cl)cc3)C2)cc1Cn1cncn1 (stereo not drawn) | inconclusive [activator, partial curve, poor fit] | –
Cc1ccc(C)c(N(C(=O)CNC(=O)c2ccco2)C(C(=O)NC2CCCCC2)c2cccnc2)c1 (stereo not drawn) | inactive | –
COC(=O)CCC(=O)OC1(C)C(=O)C2=CN(CCc3c[nH]c4ccccc34)C(c3ccc(OC)cc3)=CC2=C(Br)C1=O (stereo not drawn) | inconclusive [activator, single point] | –
CN(C(=O)c1cccc(NC(=O)Cc2ccc(NC(=O)C3CCN(C(=O)c4ccccc4)CC3)cc2)c1)C1CCC1 | inconclusive [activator, single point] | –
C/C(=N/NC(=O)c1ccc(Br)o1)C(C)C | inactive | –

Structure (SMILES) | Potency | activity, positive = re-replication
Cc1ccc(NC(=O)C(C)N2CCc3ccccc3C2)cc1 (stereo not drawn) | inconclusive [activator, partial curve, poor fit] | –
Cc1ccc(NC(=O)c2cc(=O)c3ccccc3o2)cc1S(=O)(=O)N1CCCCC1 | inconclusive [activator, single point] | –
COc1ccc(C(=O)Nc2c(-c3ccccc3)nc3ccccn23)c(OC)c1 | inconclusive [activator, single point] | –
CN(C)CCNCCCNc1c2ccccc2nc2cccc([N+](=O)[O-])c12 | – | inconclusive: 64.6% [activator]
CCC(Sc1nc(C)cc(C)n1)C(=O)NC1=NN=C(c2ccc(C)cc2)CS1 (stereo not drawn) | inconclusive [activator, single point] | –
CCOc1cc(/C=N/Nc2nc(-c3cccc(S(=O)(=O)N4CCCC4)c3)cs2)ccc1O | inconclusive [activator, single point] | –
Cc1ncc(CN2CCCC(C(=O)Nc3ccc(-c4cccc(F)c4)cc3)C2)n1C (stereo not drawn) | active: 23.1 µM | –
O/N=C(/c1ccc(Cl)cc1)C1CC1c1ccccc1 (stereo not drawn) | inconclusive [activator, single point] | –
COc1ccc(CNC(C)C23CC4CC(CC(C4)C2)C3)c(OC)c1OC (stereo not drawn) | inconclusive [activator, single point] | –
Cc1cc(C)nc(NC(=O)c2ccc([N+](=O)[O-])o2)n1 | active: 13 µM | –
Cc1cccc(/C(N)=N/OC(=O)Cc2cccc3ccccc23)c1 | inconclusive [activator, single point] | –
Cc1ccc(-c2nn(-c3ccccc3)cc2C(=O)NCC(c2cccs2)N2CCOCC2)cc1 (stereo not drawn) | inactive | –
N#CCSc1nc2cc(C(=O)N3CCC(C(N)=O)CC3)ccc2c2nc3ccccc3n12 | inconclusive [activator, single point] | –
O=C(CNC(=O)Cc1cccc2ccccc12)NCc1ccccc1F | inconclusive [activator, partial curve, poor fit] | –
CC(OC(=O)c1ccc(C#N)cc1)C(=O)Nc1ccc(Cl)cn1 (stereo not drawn) | inconclusive [activator, full curve, poor fit] | –
O=C(O)c1ccc(N2CCN(C(c3ccccc3)c3ccccc3)CC2)c([N+](=O)[O-])c1 | inactive | –
O=C(CNC(=O)c1ccccc1F)N/N=C/c1cc(Br)ccc1OC(=O)/C=C/c1ccco1 | inconclusive [activator, full curve, poor fit] | –
NNC(=O)CSc1nc(-c2ccccc2)cn1-c1ccccc1 | inactive | –
O=C(CN(C(=O)c1ccco1)c1cccc(F)c1)NCc1ccc(F)cc1 | inconclusive [activator, single point] | –
C/C(=N\NC(=O)CN1CCN(Cc2ccc(C)cc2)CC1)c1ccncc1 | inactive | –
O=C(Nc1ccccc1N1CCOCC1)c1ccc(N2CCCC2=O)cc1 | inactive | –
CCC1CCCCN1C(=O)c1ccc(OC2CCN(Cc3ccccn3)CC2)cc1 (stereo not drawn) | inconclusive [activator, single point] | –
